In PubChem BioAssay AID493035 (The Scripps Research Institute Molecular Screening Center, 2011):
“And” between values parts separate entries of the source, which are not always exact repeats. Equal entries are not always repeated. The whole screen tested about 2,000 compounds, of which about 45 (2%) were called active.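 How the source made its calls: active means inhibition above the mean of all tested compounds plus 3 SD (cut at about 49% in these data); inactive means the rest.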 Some of the results follow.

Target: Perilipin-5 (Homo sapiens) + 1-acylglycerol-3-phosphate O-acyltransferase ABHD5 (Homo sapiens) (UniProt Q00G26+Q8WTS1)
Experiment: ABHD5-PLIN5 interaction inhibitors, pilot screen, cell lysate, split luciferase complementation, luminescence, NIH validation set (AID 493035);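 further: 0% = DMSO only wells while the 100% control is not stated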
Conditions: split G. princeps luciferase complementation, lysates, 4 h; at 7.9 µM, stronger effect = higher value

UniProt Q00G26, sequence (Q00G26 whole entry, looked up): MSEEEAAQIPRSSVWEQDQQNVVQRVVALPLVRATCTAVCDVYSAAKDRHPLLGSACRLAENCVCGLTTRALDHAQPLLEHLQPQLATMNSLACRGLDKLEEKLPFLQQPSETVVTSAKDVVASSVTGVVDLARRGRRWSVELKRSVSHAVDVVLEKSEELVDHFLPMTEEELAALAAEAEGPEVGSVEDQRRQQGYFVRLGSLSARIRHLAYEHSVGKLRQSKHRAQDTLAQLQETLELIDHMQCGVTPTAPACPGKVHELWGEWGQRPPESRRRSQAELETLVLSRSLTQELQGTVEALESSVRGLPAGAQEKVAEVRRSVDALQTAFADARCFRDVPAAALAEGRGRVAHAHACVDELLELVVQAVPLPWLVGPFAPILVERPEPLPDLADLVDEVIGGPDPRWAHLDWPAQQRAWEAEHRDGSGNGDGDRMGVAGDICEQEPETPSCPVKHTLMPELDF
UniProt Q00G26, sequence (Q8WTS1 whole entry, looked up): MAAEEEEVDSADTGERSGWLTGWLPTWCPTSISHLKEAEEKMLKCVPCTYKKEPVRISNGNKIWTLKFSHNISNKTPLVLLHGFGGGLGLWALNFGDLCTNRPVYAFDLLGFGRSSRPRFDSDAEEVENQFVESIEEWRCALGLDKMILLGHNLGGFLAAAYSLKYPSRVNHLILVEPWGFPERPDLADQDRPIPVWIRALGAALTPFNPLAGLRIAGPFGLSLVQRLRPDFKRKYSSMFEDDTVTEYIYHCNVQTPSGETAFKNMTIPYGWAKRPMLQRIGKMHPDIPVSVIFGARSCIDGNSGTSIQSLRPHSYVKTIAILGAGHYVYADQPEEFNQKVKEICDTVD

Row | SMILES | inhibition
1 | O=C1NC(=O)C(c2ccccc2)(c2ccccc2)N1 | inactive: -12.7% and inactive: 2.95%
2 | Cc1ccccc1-c1nn(-c2ccc(F)cc2F)cc1CNCCN(C)C | inactive: -6.8%
3 | O=C1NCC2=C1C(c1ccccc1)Nc1ccccc1N2 (stereo not drawn) | inactive: 13.5%
4 | Cc1ccc2c(c1)C(O)(C1COC(C)(C)CC1=O)C(=O)N2C (stereo not drawn) | inactive: -8.67%
5 | c1ccc(CNc2ncnc3nc[nH]c23)cc1 | inactive: -5.25%
6 | O=c1nc2cccc3c2=c(/c1=C(\O)c1ccccc1)c1ccccc1c3=O | inactive: 4.68%
7 | CC(C)Cc1nc(NCCN2CCOCC2)c(C#N)c2c1COC(C)(C)C2 | inactive: -6.7%
8 | Fc1ccc(-c2cc(-c3ccccc3)nc(-n3cccn3)n2)cc1 | inactive: 2.83%
9 | COc1ccc(Cc2noc(CN(C)CC3(N4CCOCC4)CCCCC3)n2)cc1OC | inactive: 1.62%
10 | Cc1cccc(-c2ncc(CN3CCN(CC(C)C)C(CCO)C3)cn2)c1 (stereo not drawn) | inactive: -0.55%
11 | COC1CCN(Cc2cn(Cc3ccccc3)nc2-c2cc3ccccc3o2)CC1 | inactive: -13.2%
12 | COc1ccc(C2C3=C(OC(C)=O)c4ccccc4C3=Nc3c2c(=O)n(C)c(=O)n3C)cc1 (stereo not drawn) | inactive: -6.71%
13 | COc1ccc2[nH]c(=O)c(CNC3CCCCC3)cc2c1 | inactive: 0.21%
14 | COc1cc2c(cc1OC)C(Cc1ccc(O)cc1)N(C)CC2 (stereo not drawn) | inactive: 3.62%
15 | COc1ccccc1C(=O)c1cc2ccc(O)cc2oc1=O | inactive: 1.5%
16 | O=C(c1ccc(O)cc1)c1ccc(O)cc1O | inactive: -3.19%
17 | Cc1ccc(S(=O)(=O)Oc2ccccc2/C=N/N=C(N)N)cc1 | inactive: -1.13%
18 | CCc1cc2c(=O)c(-c3ccc(F)cc3)c(C)oc2cc1OCC(=O)O | inactive: 8.3%
19 | O=C(O)CP(=O)(O)O | inactive: -2.45%
20 | CNc1nc(N(C)C)nc(N(C)C)n1 | inactive: -0.61%
21 | COc1ccc(C(=O)/C=C/c2cc(C(=O)O)cc3c2OCOC3)c(O)c1 | active: 70.3%
22 | CN1CCCC(OC(=O)c2ccc3c(c2)OCCO3)C1 (stereo not drawn) | inactive: 1.35%
23 | COC(=O)c1ccccc1NC(=O)c1ccc(COc2ccc3c(c2)CCC3)cc1 | inactive: -8.51%
24 | Cc1c2c(nc3c(C)cccc13)OC(C)C2 (stereo not drawn) | inactive: 0.14%
25 | CN(C)C(=O)Oc1ccc[n+](C)c1 | inactive: -1.84%
26 | CC(=O)CCc1c(C)c2cccc(C)c2[nH]c1=O | inactive: -5.36%
27 | COc1ccccc1OCC(O)COC(N)=O (stereo not drawn) | inactive: 1.61%
28 | CC(C)C[C@H]1C(=O)N2CCC[C@H]2[C@]2(O)O[C@](NC(=O)[C@@H]3C=C4c5cccc6[nH]c(Br)c(c56)CC4N(C)C3)(C(C)C)C(=O)N12 (stereo partly drawn) | inactive: 12.3%
